The record followed here is the supplement of paper PMC4604168 (melanoma cell lines).

Some of the results follow. Single values are uncertain, as repeats are few or missing.
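Further: cells treated in 1,536-well plates, then fixed and DAPI-stained, with nuclei counted from automated high-throughput microscope images.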

For the test, the system named is C32. The test can be described thus: cell count relative to DMSO control; melanoma cells; higher = more viable cells. The settings on record: library dose: standard library concentration; 72 h.
`Nc1ccn([C@@H]2O[C@H](CO)[C@@H](O)C2(F)F)c(=O)n1` [gemcitabine] + O=C(O)C(=O)Nc1sc2c(c1C(=O)O)CCNC2 [TCS401] (first compound 0.002 µM, partner dose 8.33333 µM) registered a cell count of 85.4%.

Turning to `CC(=O)O[C@@]12CO[C@@H]1C[C@H](O)[C@@]1(C)C(=O)[C@H](O)C3=C(C)[C@@H](OC(=O)[C@H](O)[C@@H](NC(=O)OC(C)(C)C)c4ccccc4)C[C@@](O)([C@@H](OC(=O)c4ccccc4)[C@H]21)C3(C)C` [Docetaxel] + C[C@]1(c2nc3c(C(N)=O)cccc3[nH]2)CCCN1 [Veliparib] (first compound 0.0005 µM, partner dose 7 µM), the cell count came to 67%.

The molecule `CC(=O)c1c(C)c2cnc(Nc3ccc(N4CCNCC4)cn3)nc2n(C2CCCC2)c1=O` [palbociclib] + N#Cc1c(O)c2c(-c3ccc(-c4ccccc4O)cc3)csc2[nH]c1=O [A769662] (first compound 0.2 µM, partner dose 10 µM) yielded a cell count of 68.6%.

`Nc1ccn([C@@H]2O[C@H](CO)[C@@H](O)C2(F)F)c(=O)n1` [gemcitabine] + C=CCNC1=C2C[C@@H](C)C[C@H](OC)[C@H](O)[C@@H](C)/C=C(\C)[C@H](OC(N)=O)[C@@H](OC)/C=C\C=C(/C)C(=O)NC(=CC1=O)C2=O [Tanespimycin] (first compound 0.002 µM, partner dose 0.01 µM) registered a cell count of 30.1%.

Molecule `CC(=O)c1c(C)c2cnc(Nc3ccc(N4CCNCC4)cn3)nc2n(C2CCCC2)c1=O` [palbociclib] + O=C(Nc1cccc(Cl)c1)Nc1ncc(CCNc2ncnc3ccsc23)s1 [SNS314] (first compound 0.2 µM, partner dose 0.004 µM) displayed a cell count of 52.9%.

Regarding `CC(=O)O[C@@]12CO[C@@H]1C[C@H](O)[C@@]1(C)C(=O)[C@H](O)C3=C(C)[C@@H](OC(=O)[C@H](O)[C@@H](NC(=O)OC(C)(C)C)c4ccccc4)C[C@@](O)([C@@H](OC(=O)c4ccccc4)[C@H]21)C3(C)C` [Docetaxel] + c1cc(-c2cnn3cc(-c4ccc(OCCN5CCCCC5)cc4)cnc23)ccn1 [Dorsomorphin] (first compound 0.0005 µM, partner dose 2 µM), the cell count was found to be 53.9%.

In turn, `Nc1ncn([C@H]2C[C@H](O)[C@@H](CO)O2)c(=O)n1` [decitabine] + COC(=O)c1sccc1S(=O)(=O)Nc1ccc(Nc2ccccc2)cc1OC [GSK0660] (first compound 0.5 µM, partner dose 5 µM) returned a cell count of 102%.

For the molecule `CO[C@H]1C[C@@H]2CC[C@@H](C)[C@@](O)(O2)C(=O)C(=O)N2CCCC[C@H]2C(=O)O[C@H]([C@H](C)C[C@@H]2CC[C@@H](OCCO)[C@H](OC)C2)CC(=O)[C@H](C)/C=C(\C)[C@@H](O)[C@@H](OC)C(=O)[C@H](C)C[C@H](C)/C=C/C=C/C=C/1C` [everolimus] + Clc1ccc(Nc2nnc(Cc3ccncc3)c3ccccc23)cc1 [vatalanib] (first compound 0.1 µM, partner dose 10 µM), the cell count is 71.2%.

`Nc1ccn([C@@H]2O[C@H](CO)[C@@H](O)C2(F)F)c(=O)n1` [gemcitabine] + OCc1c[nH]c2ccccc12 [Indole-3-carbinol] (first compound 0.002 µM, partner dose 4 µM): the cell count was found to be 87.4%.

Turning to `Nc1ncn([C@H]2C[C@H](O)[C@@H](CO)O2)c(=O)n1` [decitabine] + O=C(Nc1ccccc1)c1cc([N+](=O)[O-])ccc1Cl [GW9662] (first compound 0.5 µM, partner dose 10 µM), the cell count is 110%.

`Nc1ccn([C@@H]2O[C@H](CO)[C@@H](O)C2(F)F)c(=O)n1` [gemcitabine] + NC(=O)Nc1cc(-c2cccc(F)c2)sc1C(=O)N[C@H]1CCCNC1 [AZD7762] (first compound 0.002 µM, partner dose 0.1 µM) yielded a cell count of 27.3%.

For the molecule `Nc1nc(F)nc2c1ncn2[C@@H]1O[C@H](CO)[C@@H](O)[C@@H]1O` [fludarabine] + O=c1cc(-c2cccc3c2Sc2ccccc2S3)oc(N2CCOCC2)c1 [KU55933] (first compound 1 µM, partner dose 5 µM), the cell count came to 104%.

In turn, `CC(=O)O[C@@]12CO[C@@H]1C[C@H](O)[C@@]1(C)C(=O)[C@H](O)C3=C(C)[C@@H](OC(=O)[C@H](O)[C@@H](NC(=O)OC(C)(C)C)c4ccccc4)C[C@@](O)([C@@H](OC(=O)c4ccccc4)[C@H]21)C3(C)C` [Docetaxel] + CO[C@H]1C[C@@H]2CC[C@@H](C)[C@@](O)(O2)C(=O)C(=O)N2CCCC[C@H]2C(=O)O[C@H]([C@H](C)C[C@@H]2CC[C@@H](OCCO)[C@H](OC)C2)CC(=O)[C@H](C)/C=C(\C)[C@@H](O)[C@@H](OC)C(=O)[C@H](C)C[C@H](C)/C=C/C=C/C=C/1C [everolimus] (first compound 0.0005 µM, partner dose 0.1 µM) registered a cell count of 51.9%.

Consider `CC(=O)O[C@@]12CO[C@@H]1C[C@H](O)[C@@]1(C)C(=O)[C@H](O)C3=C(C)[C@@H](OC(=O)[C@H](O)[C@@H](NC(=O)OC(C)(C)C)c4ccccc4)C[C@@](O)([C@@H](OC(=O)c4ccccc4)[C@H]21)C3(C)C` [Docetaxel] + O=C(CCCCCCC(=O)Nc1ccccc1)NO [vorinostat] (first compound 0.0005 µM, partner dose 0.4 µM), for which the cell count came out at 92.3%.

`Nc1ccn([C@@H]2O[C@H](CO)[C@@H](O)C2(F)F)c(=O)n1` [gemcitabine] + c1cc(-c2cnn3cc(-c4ccc(OCCN5CCCCC5)cc4)cnc23)ccn1 [Dorsomorphin] (first compound 0.002 µM, partner dose 2 µM) returned a cell count of 59.7%.
